Experimental findings from the supplement of paper PMC9446081 are described below.

The structures appear in SMILES notation. Out of some 39,000 compounds screened, about 220 (0.56%) showed activity. The list shows a part of the results.
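Note: static incubation at 37 °C against the wild-type strain, values averaged over two biological replicates.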

The experiment relates to Escherichia coli K-12 BW25113. The experiment is described as follows: relative growth (OD600 normalised to plate interquartile mean) (fraction); higher = less growth inhibition, active = 0.2 or less. Conditions: 50 µM; LB; incubation time: overnight (16-24 h).
As to `C[C@@H]1CCCCO[C@H](CN(C)Cc2ccc(Cl)c(Cl)c2)[C@@H](C)CN([C@H](C)CO)C(=O)c2cc(NC(=O)C3CCCCC3)ccc2O1`, the relative growth was inactive: 1.03.

For the compound `COCC(=O)N1C[C@@H](C)[C@H](OC)CN(C)C(=O)c2cc(NC(=O)c3cc(C)on3)ccc2OC[C@H]1C`, the relative growth was inactive: 0.969.

Regarding `C[C@@H]1CN([C@@H](C)CO)C(=O)c2cc(C#CCc3ccccc3)cnc2O[C@@H]1CN(C)CC1CCOCC1`, the relative growth was inactive: 0.989.

On to `C[C@H]1CN([C@@H](C)CO)C(=O)c2cc(NC(=O)Nc3cccc4ccccc34)ccc2O[C@H]1CN(C)S(=O)(=O)c1ccc(Cl)cc1`, for which the relative growth is inactive: 1.04.

As to `COc1ccc(NC(=O)N(C)C[C@H]2Oc3ncc(C#CCN(C)C)cc3C(=O)N([C@@H](C)CO)C[C@H]2C)cc1`, the relative growth is inactive: 0.928.

`C[C@H]1CN([C@@H](C)CO)C(=O)Cc2cc(NC(=O)Nc3ccc(C(F)(F)F)cc3)ccc2O[C@@H]1CN(C)CC1CCCCC1`: the relative growth was inactive: 0.987.

Consider `O=C(C[C@H]1C=C[C@@H](NS(=O)(=O)c2ccccc2F)[C@@H](CO)O1)NCCCN1CCOCC1`, for which the relative growth is inactive: 0.985.

For the compound `CC(C)CC#Cc1ccc2c(c1)O[C@H](CN(C)Cc1cncnc1)[C@H](C)CN([C@H](C)CO)S2(=O)=O`, the relative growth is inactive: 0.979.

As to `C[C@H]1CN([C@@H](C)CO)C(=O)c2cc(Br)cnc2O[C@H]1CN(C)C(=O)c1ccc2c(c1)OCO2`, the relative growth was inactive: 1.01.

As to `C[C@H](CO)N1C[C@H](C)[C@@H](CN(C)C(=O)CCN2CCCCC2)Oc2ncc(C#Cc3ccccc3)cc2C1=O`, the relative growth was inactive: 1.01.

As to `C[C@@H]1CCCCO[C@H](CN(C)Cc2ccc(Cl)c(Cl)c2)[C@H](C)CN([C@@H](C)CO)C(=O)c2cc(NC(=O)c3ccccc3)ccc2O1`, the relative growth was inactive: 1.03.

For the compound `CCN1CCN(C2=C(NS(=O)(=O)c3ccc(Br)s3)C(=O)c3ccccc3C2=O)CC1`, the relative growth is inactive: 0.929.

Regarding `C[C@@H]1CN([C@H](C)CO)C(=O)c2cc(NC(=O)C3CCCCC3)ccc2O[C@H]1CN(C)Cc1ccc(C(F)(F)F)cc1`, the relative growth was inactive: 1.03.

For the compound `Cc1noc(C)c1NC(=O)N[C@H]1CC[C@@H](CC(=O)NCCCN(C)C)O[C@H]1CO`, the relative growth was inactive: 1.04.

With `C[C@@H]1CN([C@H](C)CO)C(=O)c2cc(NC(=O)c3ccccc3)ccc2O[C@@H](C)CCCCO[C@@H]1CN(C)S(=O)(=O)c1ccc(Cl)cc1`, the relative growth was inactive: 0.95.

For `C[C@H](CO)N1C[C@H](C)[C@H](CN(C)CC2CC2)OCCCC[C@H](C)Oc2ccc(NC(=O)Cc3ccccc3)cc2C1=O`, the relative growth was inactive: 1.04.

For `C[C@@H]1CN([C@H](C)CO)S(=O)(=O)c2ccc(-c3ccc(C(=O)N(C)C)cc3)cc2O[C@H]1CN(C)C(=O)C1CCOCC1`, the relative growth was inactive: 0.986.

With `C[C@@H]1CCCCO[C@H](CN(C)CC2CCCCC2)[C@@H](C)CN([C@@H](C)CO)C(=O)c2cc(NS(=O)(=O)c3cccs3)ccc2O1`, the relative growth was inactive: 0.974.

For the compound `C[C@H](CO)N1C[C@H](C)[C@H](CN(C)C(=O)Nc2ccc(F)cc2)OCCCC[C@H](C)Oc2ccc(NC(=O)C3CCCCC3)cc2C1=O`, the relative growth was inactive: 1.02.

For the compound `Cn1ncc(Br)c1C(=O)O`, the relative growth is inactive: 1.02.

Regarding `C[C@@H]1CN([C@H](C)CO)C(=O)Cc2cc(NC(=O)c3ccncc3)ccc2O[C@H]1CN(C)Cc1ccncc1`, the relative growth was inactive: 1.

Regarding `O=C(CCN1CCNCC1)N1CCCCC1`, the relative growth was inactive: 1.03.

As for `Cc1noc(C)c1NC(=O)N(C)C[C@H]1OCCCC[C@@H](C)Oc2ccc(NC(=O)C3CCCCC3)cc2C(=O)N([C@@H](C)CO)C[C@H]1C`, the relative growth is inactive: 0.976.

`COc1ccc(S(=O)(=O)N(C)C[C@H]2Oc3c(cccc3N(C)C)C(=O)N([C@H](C)CO)C[C@@H]2C)cc1`: the relative growth is inactive: 0.997.

For `C[C@@H]1CN([C@H](C)CO)C(=O)c2cccc(NC(=O)C3CCCCC3)c2O[C@@H]1CN(C)Cc1ccc(Cl)c(Cl)c1`, the relative growth was inactive: 1.01.

For `Cc1noc(C)c1S(=O)(=O)Nc1ccc2c(c1)CC(=O)N([C@@H](C)CO)C[C@@H](C)[C@H](CN(C)S(=O)(=O)c1c(C)noc1C)O2`, the relative growth is inactive: 1.03.

`C[C@@H]1CN([C@@H](C)CO)C(=O)c2cccc(NC(=O)c3nc4ccccc4s3)c2O[C@@H]1CN(C)Cc1ccc(-c2ccccc2)cc1`: the relative growth is inactive: 0.994.

Consider `CC(=O)N[C@H]1[C@H](O[C@H]2CC[C@]3(C)[C@H]4CC=C5[C@@H]6CC(C)(C)CC[C@]6(C(=O)O[C@H]6OC[C@@H](O)[C@@H](O)[C@@H]6O)[C@@H](O)C[C@@]5(C)[C@]4(C)CC[C@H]3C2(C)C)O[C@H](CO[C@H]2OC[C@@H](O)[C@@H](O[C@H]3OC[C@@H](O)[C@@H](O)[C@@H]3O)[C@@H]2O)[C@@H](O[C@@H]2O[C@@H](C)[C@H](O)[C@@H](O)[C@H]2O[C@@H]2O[C@@H](C)[C@H](O)[C@@H](O)[C@H]2O)[C@@H]1O`, for which the relative growth is inactive: 0.985.

For the compound `C[C@@H]1CN([C@H](C)CO)C(=O)Cc2cc(NS(=O)(=O)c3ccc(Cl)cc3)ccc2O[C@@H]1CN(C)Cc1ccc(-c2ccccc2)cc1`, the relative growth was inactive: 1.01.

As to `C[C@H](CO)N1C[C@H](C)[C@@H](CN(C)S(=O)(=O)c2cn(C)cn2)Oc2ccc(NC(=O)NC3CCCCC3)cc2CC1=O`, the relative growth is inactive: 0.996.

As to `COc1ccc(NC(=O)N(C)C[C@@H]2OCc3ccccc3-c3c(n(C)c4ccccc34)C(=O)N([C@H](C)CO)C[C@H]2C)c(OC)c1`, the relative growth was inactive: 1.01.

In the case of `Cc1ccc(S(=O)(=O)Nc2ccc3c(c2)C(=O)N([C@H](C)CO)C[C@H](C)[C@@H](CN(C)C(=O)Nc2ccc(F)cc2)OCCCC[C@H](C)O3)cc1`, the relative growth is inactive: 1.03.

As for `CCC(=O)Nc1ccc2c(c1)OC[C@@H](C)N(C(=O)CN1CCOCC1)C[C@H](C)[C@H](OC)CN(C)C2=O`, the relative growth was inactive: 0.992.

`NNC(=O)CCCCCCC(=O)NO`: the relative growth was inactive: 1.02.

For `C[C@@H]1CN([C@H](C)CO)C(=O)c2cc(NC(=O)Cc3ccccc3)ccc2O[C@@H](C)CCCCO[C@@H]1CN(C)C(=O)Nc1cccc2ccccc12`, the relative growth is inactive: 0.996.

On to `C[C@@H]1CN([C@@H](C)CO)C(=O)Cc2cc(NC(=O)Cn3cnnn3)ccc2O[C@H]1CN(C)Cc1ccc(Cl)c(Cl)c1`, for which the relative growth is inactive: 1.

As for `Nc1[nH]ncc1Cl`, the relative growth was inactive: 1.04.

As to `CC(C)N1C[C@H](C)[C@@H](CN(C)Cc2ccc(Oc3ccccc3)cc2)Oc2c(NC(=O)c3ccccc3)cccc2C1=O`, the relative growth is inactive: 1.03.

For the compound `COc1nonc1NC(C)=O`, the relative growth was inactive: 0.938.

Take `NCc1nc(-c2ccccc2)no1`: the relative growth is inactive: 0.96.

For the compound `C[C@H]1CCCCO[C@H](CN(C)C(=O)C2CCCCC2)[C@@H](C)CN([C@@H](C)CO)C(=O)c2cc(NC(=O)Cc3ccccc3)ccc2O1`, the relative growth was inactive: 0.992.

On to `CNC(=O)Cc1ccccc1`, for which the relative growth was inactive: 0.999.

Turning to `C[C@@H]1CCCCO[C@@H](CN(C)C(=O)Nc2cccc3ccccc23)[C@@H](C)CN([C@H](C)CO)C(=O)c2cc(NC(=O)Cc3ccccc3)ccc2O1`, the relative growth is inactive: 1.01.

On to `COc1ccc(CCNC(=O)c2cc3c(=O)n4cccc(C)c4nc3n(CCCN3CCOCC3)c2=N)cc1`, for which the relative growth was inactive: 0.918.

As for `COc1ccc(NC(=O)N(C)C[C@H]2Oc3c(NC(=O)c4cnccn4)cccc3C(=O)N([C@@H](C)CO)C[C@H]2C)cc1`, the relative growth was inactive: 0.965.

Take `C[C@@H]1CN([C@@H](C)CO)S(=O)(=O)c2ccc(C#CC3(O)CCCC3)cc2O[C@@H]1CN(C)C(=O)Nc1ccc(F)cc1`: the relative growth was inactive: 1.01.

For `N[C@@]1(C(=O)O)CS(=O)(=O)[C@H]2[C@H](C(=O)O)[C@H]21`, the relative growth is inactive: 1.01.

As to `CN1C(=O)c2cc(NC(=O)Cc3cccs3)ccc2OC[C@@H]2O[C@@H](CC(=O)NCCc3ccncc3)CC[C@@H]21`, the relative growth was inactive: 1.02.

Consider `Brc1ccc(CSc2c[nH]c3ccccc23)cc1`, for which the relative growth was inactive: 0.939.

Take `COc1ccc(S(=O)(=O)N(C)C[C@@H]2OCCCC[C@H](C)Oc3ccc(NC(=O)c4ccccc4)cc3C(=O)N([C@@H](C)CO)C[C@H]2C)cc1`: the relative growth is inactive: 1.02.

For the compound `Nc1cnc(Cl)nc1N`, the relative growth is inactive: 0.996.

Consider `CO[C@H]1O[C@H](COC(=O)NCCCCCC(=O)NO)[C@H](OC(=O)Nc2ccccc2)[C@H](OC(=O)Nc2ccccc2)[C@H]1OC(=O)Nc1ccccc1`, for which the relative growth was inactive: 0.918.

As to `Cc1noc(C)c1NC(=O)Nc1ccc2c(c1)C(=O)N([C@@H](C)CO)C[C@@H](C)[C@H](CN(C)C(=O)NC1CCCCC1)OCCCC[C@@H](C)O2`, the relative growth was inactive: 0.985.

Regarding `COc1ccc(NC(=O)N(C)C[C@H]2Oc3c(NC(=O)C4CC4)cccc3C(=O)N([C@H](C)CO)C[C@H]2C)cc1`, the relative growth is inactive: 1.04.

Regarding `C[C@H]1CN([C@@H](C)CO)C(=O)Cc2cc(NS(=O)(=O)c3cn(C)cn3)ccc2O[C@H]1CN(C)C(=O)Nc1ccc(F)cc1`, the relative growth was inactive: 0.985.

Take `C[C@H](CO)N1C[C@H](C)[C@H](CN(C)C(=O)Nc2ccc(F)cc2)Oc2ccc(NC(=O)Nc3ccc(C(F)(F)F)cc3)cc2C1=O`: the relative growth was inactive: 1.

As for `Cc1ccc(S(=O)(=O)N(C)C[C@H]2Oc3c(NC(=O)C4CCOCC4)cccc3C(=O)N([C@H](C)CO)C[C@H]2C)cc1`, the relative growth was inactive: 1.01.

As for `C[C@H](CO)N1C[C@H](C)[C@H](CN(C)S(=O)(=O)c2cn(C)cn2)Oc2ccc(NS(=O)(=O)c3ccc(F)cc3)cc2CC1=O`, the relative growth was inactive: 1.02.

With `CC(C)=CCCC(C)=CCCC(C)=CCCC(C)=CCCC(C)=CCCC(C)=CCCC(C)=CCCC(C)=CCCC(C)=CCO`, the relative growth was inactive: 1.12.

In the case of `N#Cc1ccc(CN)cc1`, the relative growth was inactive: 0.974.
